Results reported in paper PMC6656915, “The MmpL3 interactome reveals a complex crosstalk between cell envelope biosynthesis and cell elongation and division in mycobacteria” (Scientific Reports, 2019).
These are yes or no findings as the source states them, for the method shown. Some results given as binding are weak or reduced against the parent protein; the word gives no strength. Tags and fused reporters may be left off the sequences shown.

Protein sequences, listed by entry. Tags and fused reporters are not part of them.
UniProt P9WGT3: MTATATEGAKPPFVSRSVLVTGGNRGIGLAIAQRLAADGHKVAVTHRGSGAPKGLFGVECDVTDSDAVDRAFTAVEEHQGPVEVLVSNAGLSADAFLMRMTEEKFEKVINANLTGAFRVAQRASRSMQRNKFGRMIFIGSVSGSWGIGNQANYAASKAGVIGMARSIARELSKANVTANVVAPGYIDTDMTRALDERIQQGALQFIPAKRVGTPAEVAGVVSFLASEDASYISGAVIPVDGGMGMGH
UniProt Q6MX39: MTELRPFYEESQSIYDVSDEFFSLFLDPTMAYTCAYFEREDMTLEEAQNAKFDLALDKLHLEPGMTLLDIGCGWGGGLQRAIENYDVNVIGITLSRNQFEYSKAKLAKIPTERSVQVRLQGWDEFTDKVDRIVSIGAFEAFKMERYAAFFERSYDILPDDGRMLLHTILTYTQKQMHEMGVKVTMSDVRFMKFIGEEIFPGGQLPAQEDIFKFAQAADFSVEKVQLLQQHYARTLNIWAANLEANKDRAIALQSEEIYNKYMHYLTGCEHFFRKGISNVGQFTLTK
UniProt A5U030: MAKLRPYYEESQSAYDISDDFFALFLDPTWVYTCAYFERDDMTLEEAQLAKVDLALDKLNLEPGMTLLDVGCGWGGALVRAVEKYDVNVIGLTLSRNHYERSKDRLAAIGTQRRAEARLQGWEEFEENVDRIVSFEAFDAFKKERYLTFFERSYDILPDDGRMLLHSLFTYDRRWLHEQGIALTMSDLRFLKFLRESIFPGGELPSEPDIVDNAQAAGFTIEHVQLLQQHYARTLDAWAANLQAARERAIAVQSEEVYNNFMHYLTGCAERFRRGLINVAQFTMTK
UniProt Q79FX8: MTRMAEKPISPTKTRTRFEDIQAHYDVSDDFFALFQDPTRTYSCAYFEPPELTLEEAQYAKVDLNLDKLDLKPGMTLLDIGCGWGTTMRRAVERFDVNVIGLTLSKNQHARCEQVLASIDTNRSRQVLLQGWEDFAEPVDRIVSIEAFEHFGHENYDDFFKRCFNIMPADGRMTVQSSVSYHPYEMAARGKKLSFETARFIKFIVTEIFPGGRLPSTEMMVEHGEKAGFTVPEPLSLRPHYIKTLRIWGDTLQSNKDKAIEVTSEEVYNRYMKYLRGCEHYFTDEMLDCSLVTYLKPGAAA
UniProt P96890: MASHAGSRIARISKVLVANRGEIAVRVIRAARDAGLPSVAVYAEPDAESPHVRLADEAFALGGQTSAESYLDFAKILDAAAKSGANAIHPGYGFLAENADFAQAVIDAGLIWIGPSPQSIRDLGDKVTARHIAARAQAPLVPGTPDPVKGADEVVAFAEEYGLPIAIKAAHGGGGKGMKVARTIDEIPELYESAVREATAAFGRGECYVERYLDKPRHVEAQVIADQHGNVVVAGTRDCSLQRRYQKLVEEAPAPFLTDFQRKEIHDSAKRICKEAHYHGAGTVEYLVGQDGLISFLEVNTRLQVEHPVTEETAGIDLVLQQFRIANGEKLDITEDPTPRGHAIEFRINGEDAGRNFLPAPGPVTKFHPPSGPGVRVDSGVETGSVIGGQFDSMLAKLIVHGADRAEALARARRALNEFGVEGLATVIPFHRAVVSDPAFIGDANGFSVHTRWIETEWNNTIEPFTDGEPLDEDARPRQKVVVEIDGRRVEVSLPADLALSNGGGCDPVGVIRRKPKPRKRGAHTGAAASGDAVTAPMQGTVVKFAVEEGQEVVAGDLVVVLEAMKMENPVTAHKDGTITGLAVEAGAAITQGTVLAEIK
UniProt P9WPB3: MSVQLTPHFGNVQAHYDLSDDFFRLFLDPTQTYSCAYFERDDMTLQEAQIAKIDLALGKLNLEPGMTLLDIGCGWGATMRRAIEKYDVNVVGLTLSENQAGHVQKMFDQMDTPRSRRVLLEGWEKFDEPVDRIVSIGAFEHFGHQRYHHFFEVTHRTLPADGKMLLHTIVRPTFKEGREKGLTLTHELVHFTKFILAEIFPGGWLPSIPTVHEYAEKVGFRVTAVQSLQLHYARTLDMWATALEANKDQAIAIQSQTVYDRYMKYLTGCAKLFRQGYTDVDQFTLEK
UniProt P9WPB5: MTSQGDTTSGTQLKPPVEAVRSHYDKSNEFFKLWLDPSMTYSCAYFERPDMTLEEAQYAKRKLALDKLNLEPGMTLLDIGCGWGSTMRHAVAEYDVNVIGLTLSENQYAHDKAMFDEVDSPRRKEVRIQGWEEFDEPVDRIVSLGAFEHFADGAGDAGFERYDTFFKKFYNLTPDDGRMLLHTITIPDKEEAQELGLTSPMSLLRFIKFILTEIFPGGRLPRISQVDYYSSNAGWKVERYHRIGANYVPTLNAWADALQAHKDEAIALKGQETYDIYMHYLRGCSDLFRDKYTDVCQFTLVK
UniProt I6X8D2: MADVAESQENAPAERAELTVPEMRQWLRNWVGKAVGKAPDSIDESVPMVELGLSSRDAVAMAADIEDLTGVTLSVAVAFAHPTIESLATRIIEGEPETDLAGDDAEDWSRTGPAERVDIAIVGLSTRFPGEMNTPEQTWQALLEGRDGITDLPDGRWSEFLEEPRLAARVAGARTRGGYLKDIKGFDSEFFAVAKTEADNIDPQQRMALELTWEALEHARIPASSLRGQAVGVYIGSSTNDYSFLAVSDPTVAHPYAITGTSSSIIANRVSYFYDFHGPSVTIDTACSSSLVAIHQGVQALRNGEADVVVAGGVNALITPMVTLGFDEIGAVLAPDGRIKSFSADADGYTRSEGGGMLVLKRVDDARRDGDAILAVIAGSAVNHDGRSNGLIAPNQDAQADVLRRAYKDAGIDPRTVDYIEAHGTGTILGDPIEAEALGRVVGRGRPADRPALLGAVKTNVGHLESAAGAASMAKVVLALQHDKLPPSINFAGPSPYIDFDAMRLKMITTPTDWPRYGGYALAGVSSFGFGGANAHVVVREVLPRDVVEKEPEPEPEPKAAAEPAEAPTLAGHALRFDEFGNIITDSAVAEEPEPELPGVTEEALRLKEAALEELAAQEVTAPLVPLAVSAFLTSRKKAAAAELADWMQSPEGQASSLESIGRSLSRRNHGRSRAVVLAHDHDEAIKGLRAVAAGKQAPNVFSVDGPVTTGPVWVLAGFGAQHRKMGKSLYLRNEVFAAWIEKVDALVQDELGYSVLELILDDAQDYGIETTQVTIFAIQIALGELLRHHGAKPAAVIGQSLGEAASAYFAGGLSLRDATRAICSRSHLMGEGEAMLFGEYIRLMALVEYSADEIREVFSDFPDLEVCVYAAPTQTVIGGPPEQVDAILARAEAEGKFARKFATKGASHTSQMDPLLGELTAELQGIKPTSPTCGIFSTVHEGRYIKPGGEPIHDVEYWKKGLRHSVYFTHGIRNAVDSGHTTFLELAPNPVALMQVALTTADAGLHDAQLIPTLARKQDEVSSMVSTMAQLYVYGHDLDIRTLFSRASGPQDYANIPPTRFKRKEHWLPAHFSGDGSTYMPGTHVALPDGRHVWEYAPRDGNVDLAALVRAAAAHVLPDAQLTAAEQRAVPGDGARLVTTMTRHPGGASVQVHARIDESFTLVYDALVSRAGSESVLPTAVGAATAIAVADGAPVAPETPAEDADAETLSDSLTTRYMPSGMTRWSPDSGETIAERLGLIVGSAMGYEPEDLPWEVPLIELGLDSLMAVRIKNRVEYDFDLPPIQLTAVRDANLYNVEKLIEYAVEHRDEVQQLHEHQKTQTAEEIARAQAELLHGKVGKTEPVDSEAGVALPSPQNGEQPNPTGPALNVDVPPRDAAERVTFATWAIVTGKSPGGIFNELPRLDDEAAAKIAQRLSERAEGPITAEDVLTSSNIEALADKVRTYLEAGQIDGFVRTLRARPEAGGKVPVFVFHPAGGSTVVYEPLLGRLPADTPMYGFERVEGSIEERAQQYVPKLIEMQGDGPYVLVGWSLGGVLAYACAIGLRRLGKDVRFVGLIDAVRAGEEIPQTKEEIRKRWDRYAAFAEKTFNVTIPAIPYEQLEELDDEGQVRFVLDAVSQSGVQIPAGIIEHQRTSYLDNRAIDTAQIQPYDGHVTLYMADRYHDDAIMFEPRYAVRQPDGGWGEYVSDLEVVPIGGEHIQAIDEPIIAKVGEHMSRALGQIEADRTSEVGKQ

T1: MmpL3 (full-size) fused to T18 or T25 domain for the BACTH two-hybrid system (M. tuberculosis) (UniProt P9WJV5)
T1 sequence: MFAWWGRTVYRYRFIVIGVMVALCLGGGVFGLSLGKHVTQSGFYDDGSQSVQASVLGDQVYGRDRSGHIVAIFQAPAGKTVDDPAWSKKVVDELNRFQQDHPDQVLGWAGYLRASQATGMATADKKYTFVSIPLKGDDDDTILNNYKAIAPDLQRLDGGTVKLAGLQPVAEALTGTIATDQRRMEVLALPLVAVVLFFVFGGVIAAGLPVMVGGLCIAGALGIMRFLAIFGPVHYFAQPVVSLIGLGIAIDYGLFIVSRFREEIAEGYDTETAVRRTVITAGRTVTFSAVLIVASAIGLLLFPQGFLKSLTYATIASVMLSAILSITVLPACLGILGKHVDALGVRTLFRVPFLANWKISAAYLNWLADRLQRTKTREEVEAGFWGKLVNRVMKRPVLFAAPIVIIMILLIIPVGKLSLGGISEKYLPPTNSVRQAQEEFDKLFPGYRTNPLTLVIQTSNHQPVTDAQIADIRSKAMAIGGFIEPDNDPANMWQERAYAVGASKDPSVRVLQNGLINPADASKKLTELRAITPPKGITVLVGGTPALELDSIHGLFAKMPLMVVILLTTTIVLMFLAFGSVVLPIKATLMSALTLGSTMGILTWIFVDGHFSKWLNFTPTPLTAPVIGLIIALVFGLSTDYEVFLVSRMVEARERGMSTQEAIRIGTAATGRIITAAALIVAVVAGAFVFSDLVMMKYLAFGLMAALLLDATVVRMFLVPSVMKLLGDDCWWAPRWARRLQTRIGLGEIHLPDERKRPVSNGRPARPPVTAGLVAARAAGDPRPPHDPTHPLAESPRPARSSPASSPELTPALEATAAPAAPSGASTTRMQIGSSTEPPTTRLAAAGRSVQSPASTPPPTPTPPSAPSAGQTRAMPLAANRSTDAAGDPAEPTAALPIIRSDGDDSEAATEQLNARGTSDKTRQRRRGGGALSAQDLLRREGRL


These molecules were tested against T1, MmpL3 (full-size) fused to T18 or T25 domain for the BACTH two-hybrid system (M. tuberculosis) (assay: two-hybrid).

Molecule	binding
MabA, BACTH fusion (from UniProt P9WGT3 1-247) (enzyme)	no binding
UmaA, BACTH fusion (from UniProt Q6MX39 1-286) (enzyme)	no binding
MmaA1, BACTH fusion (from UniProt A5U030 1-286) (enzyme)	no binding
MmaA4, BACTH fusion (from UniProt Q79FX8 1-301) (enzyme)	no binding
AccA3, BACTH fusion (from UniProt P96890 1-600) (enzyme)	no binding
PcaA, BACTH fusion (from UniProt P9WPB3 1-287) (enzyme)	no binding
CmaA2, BACTH fusion (from UniProt P9WPB5 1-302) (enzyme)	no binding
Pks13, BACTH fusion (from UniProt I6X8D2 1-1733) (enzyme)	no binding
CmaA1, BACTH fusion (enzyme, UniProt P9WPB7 1-287) MPDELKPHFANVQAHYDLSDDFFRLFLDPTQTYSCAYFERDDMTLQEAQIAKIDLALGKLGLQPGMTLLDVGCGWGATMMRAVEKYDVNVVGLTLSKNQANHVQQLVANSENLRSKRVLLAGWEQFDEPVDRIVSIGAFEHFGHERYDAFFSLAHRLLPADGVMLLHTITGLHPKEIHERGLPMSFTFARFLKFIVTEIFPGGRLPSIPMVQECASANGFTVTRVQSLQPHYAKTLDLWSAALQANKGQAIALQSEEVYERYMKYLTGCAEMFRIGYIDVNQFTCQK	no binding
MmpL3 (full-size) fused to T18 or T25 domain for the BACTH two-hybrid system (protein, UniProt P9WJV5 1-944) MFAWWGRTVYRYRFIVIGVMVALCLGGGVFGLSLGKHVTQSGFYDDGSQSVQASVLGDQVYGRDRSGHIVAIFQAPAGKTVDDPAWSKKVVDELNRFQQDHPDQVLGWAGYLRASQATGMATADKKYTFVSIPLKGDDDDTILNNYKAIAPDLQRLDGGTVKLAGLQPVAEALTGTIATDQRRMEVLALPLVAVVLFFVFGGVIAAGLPVMVGGLCIAGALGIMRFLAIFGPVHYFAQPVVSLIGLGIAIDYGLFIVSRFREEIAEGYDTETAVRRTVITAGRTVTFSAVLIVASAIGLLLFPQGFLKSLTYATIASVMLSAILSITVLPACLGILGKHVDALGVRTLFRVPFLANWKISAAYLNWLADRLQRTKTREEVEAGFWGKLVNRVMKRPVLFAAPIVIIMILLIIPVGKLSLGGISEKYLPPTNSVRQAQEEFDKLFPGYRTNPLTLVIQTSNHQPVTDAQIADIRSKAMAIGGFIEPDNDPANMWQERAYAVGASKDPSVRVLQNGLINPADASKKLTELRAITPPKGITVLVGGTPALELDSIHGLFAKMPLMVVILLTTTIVLMFLAFGSVVLPIKATLMSALTLGSTMGILTWIFVDGHFSKWLNFTPTPLTAPVIGLIIALVFGLSTDYEVFLVSRMVEARERGMSTQEAIRIGTAATGRIITAAALIVAVVAGAFVFSDLVMMKYLAFGLMAALLLDATVVRMFLVPSVMKLLGDDCWWAPRWARRLQTRIGLGEIHLPDERKRPVSNGRPARPPVTAGLVAARAAGDPRPPHDPTHPLAESPRPARSSPASSPELTPALEATAAPAAPSGASTTRMQIGSSTEPPTTRLAAAGRSVQSPASTPPPTPTPPSAPSAGQTRAMPLAANRSTDAAGDPAEPTAALPIIRSDGDDSEAATEQLNARGTSDKTRQRRRGGGALSAQDLLRREGRL	binds
AccD4, BACTH fusion (enzyme, UniProt O53578 1-522) MTVTEPVLHTTAEKLAELRERLELAKEPGGEKAAAKRDKKGIPSARARIYELVDPGSFMEIGALCRTPGDPNALYGDGVVTGHGLINGRPVGVFSHDQTVFGGTVGEMFGRKVARLMEWCAMVGCPIVGINDSGGARIQDAVTSLAWYAELGRRHELLSGLVPQISIILGKCAGGAVYSPIQTDLVVAVRDQGYMFVTGPDVIKDVTGEDVSLDELGGADHQASYGNIHQVVESEAAAYQYVRDFLSFLPSNCFDKPPVVNPGLEPEITGHDLELDSIVPDSDNMAYDMHEVLLRIFDDGDFLDVAAQAGQAIITGYARVDGRTVGVVANQPMHMSGAIDNEASDKAARFIRFSDAFDIPLVFVVDTPGFLPGVEQEKNGIIKRGGRFLYAVVEADVPKVTITIRKSYGGAYAVMGSKQLTADLNFAWPTARIAVIGADGAAQLLMKRFPDPNAPEAQAIRKSFVENYNLNMAIPWIAAERGFIDAVIDPHETRLLLRKSMHLLRDKQLWWRVGRKHGLIPV	no binding
InhA, BACTH fusion (enzyme, UniProt P9WGR1 1-269) MTGLLDGKRILVSGIITDSSIAFHIARVAQEQGAQLVLTGFDRLRLIQRITDRLPAKAPLLELDVQNEEHLASLAGRVTEAIGAGNKLDGVVHSIGFMPQTGMGINPFFDAPYADVSKGIHISAYSYASMAKALLPIMNPGGSIVGMDFDPSRAMPAYNWMTVAKSALESVNRFVAREAGKYGVRSNLVAAGPIRTLAMSAIVGGALGEEAGAQIQLLEEGWDQRAPIGWNMKDATPVAKTVCALLSDWLPATTGDIIYADGGAHTQLL	no binding
KasB, BACTH fusion (enzyme, UniProt P9WQD7 1-417) MTELVTGKAFPYVVVTGIAMTTALATDAETTWKLLLDRQSGIRTLDDPFVEEFDLPVRIGGHLLEEFDHQLTRIELRRMGYLQRMSTVLSRRLWENAGSPEVDTNRLMVSIGTGLGSAEELVFSYDDMRARGMKAVSPLTVQKYMPNGAAAAVGLERHAKAGVMTPVSACASGAEAIARAWQQIVLGEADAAICGGVETRIEAVPIAGFAQMRIVMSTNNDDPAGACRPFDRDRDGFVFGEGGALLLIETEEHAKARGANILARIMGASITSDGFHMVAPDPNGERAGHAITRAIQLAGLAPGDIDHVNAHATGTQVGDLAEGRAINNALGGNRPAVYAPKSALGHSVGAVGAVESILTVLALRDQVIPPTLNLVNLDPEIDLDVVAGEPRPGNYRYAINNSFGFGGHNVAIAFGRY	no binding
MmaA2, BACTH fusion (enzyme, UniProt Q79FX6 1-287) MVNDLTPHFEDVQAHYDLSDDFFRLFLDPTQTYSCAHFEREDMTLEEAQIAKIDLALGKLGLQPGMTLLDIGCGWGATMRRAIAQYDVNVVGLTLSKNQAAHVQKSFDEMDTPRDRRVLLAGWEQFNEPVDRIVSIGAFEHFGHDRHADFFARAHKILPPDGVLLLHTITGLTRQQMVDHGLPLTLWLARFLKFIATEIFPGGQPPTIEMVEEQSAKTGFTLTRRQSLQPHYARTLDLWAEALQEHKSEAIAIQSEEVYERYMKYLTGCAKLFRVGYIDVNQFTLAK	no binding
FabD, BACTH fusion (enzyme, UniProt P9WNG5 1-302) MIALLAPGQGSQTEGMLSPWLQLPGAADQIAAWSKAADLDLARLGTTASTEEITDTAVAQPLIVAATLLAHQELARRCVLAGKDVIVAGHSVGEIAAYAIAGVIAADDAVALAATRGAEMAKACATEPTGMSAVLGGDETEVLSRLEQLDLVPANRNAAGQIVAAGRLTALEKLAEDPPAKARVRALGVAGAFHTEFMAPALDGFAAAAANIATADPTATLLSNRDGKPVTSAAAAMDTLVSQLTQPVRWDLCTATLREHTVTAIVEFPPAGTLSGIAKRELRGVPARAVKSPADLDELANL	no binding
MmaA3, BACTH fusion (enzyme, UniProt P0CH91 1-293) MSDNSTGTTKSRSNVDDVQAHYDLSDAFFALFQDPTRTYSCAYFERDDMTLHEAQVAKLDLTLGKLGLEPGMTLLDVGCGWGSVMKRAVERYDVNVVGLTLSKNQHAYCQQVLDKVDTNRSHRVLLSDWANFSEPVDRIVTIEAIEHFGFERYDDFFKFAYNAMPADGVMLLHSITGLHVKQVIERGIPLTMEMAKFIRFIVTDIFPGGRLPTIETIEEHVTKAGFTITDIQSLQPHFARTLDLWAEALQAHKDEAIEIQSAEVYERYMKYLTGCAKAFRMGYIDCNQFTLAK	no binding
KasA, BACTH fusion (enzyme, UniProt P9WQD9 1-416) MSQPSTANGGFPSVVVTAVTATTSISPDIESTWKGLLAGESGIHALEDEFVTKWDLAVKIGGHLKDPVDSHMGRLDMRRMSYVQRMGKLLGGQLWESAGSPEVDPDRFAVVVGTGLGGAERIVESYDLMNAGGPRKVSPLAVQMIMPNGAAAVIGLQLGARAGVMTPVSACSSGSEAIAHAWRQIVMGDADVAVCGGVEGPIEALPIAAFSMMRAMSTRNDEPERASRPFDKDRDGFVFGEAGALMLIETEEHAKARGAKPLARLLGAGITSDAFHMVAPAADGVRAGRAMTRSLELAGLSPADIDHVNAHGTATPIGDAAEANAIRVAGCDQAAVYAPKSALGHSIGAVGALESVLTVLTLRDGVIPPTLNYETPDPEIDLDVVAGEPRYGDYRYAVNNSFGFGGHNVALAFGRY	no binding
FadD32, BACTH fusion (enzyme, UniProt O53580 1-637) MFVTGESGMAYHNPFIVNGKIRFPANTNLVRHVEKWAKVRGDKLAYRFLDFSTERDGVARDILWSDFSARNRAVGARLQQVTQPGDRVAILCPQNLDYLISFFGALYSGRIAVPLFDPAEPGHVGRLHAVLDDCAPSTILTTTDSAEGVRKFIRARSAKERPRVIAVDAVPTEVAATWQQPEANEETVAYLQYTSGSTRIPSGVQITHLNLPTNVVQVLNALEGQEGDRGVSWLPFFHDMGLITVLLASVLGHSFTFMTPAAFVRRPGRWIRELARKPGETGGTFSAAPNFAFEHAAVRGVPRDDEPPLDLSNVKGILNGSEPVSPASMRKFFEAFAPYGLKQTAVKPSYGLAEATLFVSTTPMDEVPTVIHVDRDELNNQRFVEVAADAPNAVAQVSAGKVGVSEWAVIVDADTASELPDGQIGEIWLHGNNLGTGYWGKEEESAQTFKNILKSRISESRAEGAPDDALWVRTGDYGTYFKDHLYIAGRIKDLVIIDGRNHYPQDLECTAQESTKALRVGYAAAFSVPANQLPQTVFDDSHAGLKFDPEDTSEQLVIVGERAAGTHKLDHQPIVDDIRAAIAVGHGVTVRDVLLVSAGTIPRTSSGKIGRRACRAAYLDGSLRSGVGSPTVFATSD	no binding
